Assay results: US20140093496A1 (Chugai, published 2014)

Columns and labels:
[1] = target: T1, FcγRIIa type H extracellular domain with C-terminal His tag (human, UniProt P12318 34-217); test: SPR (Biacore T100), 2 µmol/L FcγR on captured antibody
T1 construct: extracellular domain; also called FcγRIIa H; FcγRIIaH; not shown: His tag at the C terminus
T1 sequence (looked up): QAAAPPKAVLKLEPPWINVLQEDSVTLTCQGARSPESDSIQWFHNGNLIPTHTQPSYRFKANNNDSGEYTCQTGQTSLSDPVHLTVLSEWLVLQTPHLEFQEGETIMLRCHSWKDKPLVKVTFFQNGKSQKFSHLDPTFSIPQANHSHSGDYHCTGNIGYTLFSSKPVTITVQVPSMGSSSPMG
Procedure: (§1) HBS-EP+ (GE Healthcare) was used as the running buffer, and the measurement temperature was set to 25° C.

[2] = target: T2, FcγRIIIa extracellular domain with C-terminal His tag (allotype not given) (human, UniProt P08637 fragment); test: as above
T2 construct: extracellular domain; also called CD16A; not shown: His tag at the C terminus
T2 sequence (P08637 17-208): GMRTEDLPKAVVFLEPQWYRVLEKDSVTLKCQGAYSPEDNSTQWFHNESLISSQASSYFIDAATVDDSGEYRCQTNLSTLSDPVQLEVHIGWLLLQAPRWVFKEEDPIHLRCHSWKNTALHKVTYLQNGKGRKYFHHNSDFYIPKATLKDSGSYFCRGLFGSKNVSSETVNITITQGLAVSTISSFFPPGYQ
Procedure: as §1

[3] = target: T1, FcγRIIa type H extracellular domain …; test: SPR (Biacore T100), KD by Equation 2 from Req (weak binding)
[4] = target: T2, FcγRIIIa extracellular domain with …; test: as above
[5] = target: T3, FcγRIa extracellular domain with C-terminal His tag (human, UniProt P12314 16-292); test: SPR (Biacore T100), antibody captured on Protein A, FcγR analyte, 1:1 Langmuir
T3 construct: whole entry named; also called FcgRIa; CD64A; not shown: His tag at the C terminus
T3 sequence (P12314 16-292): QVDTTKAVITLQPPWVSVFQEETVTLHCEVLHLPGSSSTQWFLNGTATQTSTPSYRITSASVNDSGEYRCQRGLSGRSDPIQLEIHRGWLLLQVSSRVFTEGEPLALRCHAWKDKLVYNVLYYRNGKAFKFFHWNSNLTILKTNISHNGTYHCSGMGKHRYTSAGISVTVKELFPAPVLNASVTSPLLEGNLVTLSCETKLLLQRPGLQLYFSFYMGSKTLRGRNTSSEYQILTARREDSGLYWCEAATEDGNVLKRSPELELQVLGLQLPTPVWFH
Procedure: as §1

amount of binding (Req) [1]: ~2.5 RU | amount of binding (Req) [2]: ~2.5 RU | Kd [3]: 56 µM | Kd [4]: 51 µM | Kd [5]: 0.0073 µM
B1: IgG1-v1 (antibody)
heavy: QVQLQESGPGLVKPSETLSLTCAVSGHSISHDHAWSWVRQPPGEGLEWIGFISYSGITNYNPSLQGRVTISRDNSKNTLYLQMNSLRAEDTAVYYCARSLARTTAMDYWGEGTLVTVSS[here human IgG1 constant region with P238D (EU numbers) without letters]
light: DIQMTQSPSSLSASVGDRVTITCRASQDISSYLNWYQQKPGKAPKLLIYYTSRLHSGVPSRFSGSGSGTDFTFTISSLQPEDIATYYCQQGNTLPYTFGQGTKVEIKRTVAAPSVFIFPPSDEQLKSGTASVVCLLNNFYPREAKVQWKVDNALQSGNSQESVTEQDSKDSTYSLSSTLTLSKADYEKHKVYACEVTHQGLSSPVTKSFNRGEC
notes: IL6R-G1d with P238D (EU); also called IL6R-G1d-v1/IL6R-L; copies: 2 + 2

Kd [5]: 0.00046 µM
B2: IgG1-v2 (antibody)
heavy: QVQLQESGPGLVKPSETLSLTCAVSGHSISHDHAWSWVRQPPGEGLEWIGFISYSGITNYNPSLQGRVTISRDNSKNTLYLQMNSLRAEDTAVYYCARSLARTTAMDYWGEGTLVTVSS[here human IgG1 constant region with L328E (EU numbers) without letters]
light: B1 light
notes: IL6R-G1d with L328E (EU); also called IL6R-G1d-v2/IL6R-L; copies: 2 + 2

Each block holds one binder with its values, some of them ahead of it.
